{"source": "PubChem BioAssay AID1745845", "about": "(National Center for Advancing Translational Sciences (NCATS), 2022)", "note": "Among all 360,000 compounds or so, about 2,600 (0.72%) were called active. Inconclusive means that the source gave no clear call. Such entries were picked first, then a sample of the others. Calls follow the shape of the dose curve; as a rule, active = well fitted inhibition curve with a large enough effect; inconclusive = small, poorly fitted or top-dose-only effect; inactive = no such curve, though single readings can be large or run the other way. Potencies beside an inconclusive call are fits to weak or partial responses and may not hold up."}
{"experiment": "Primary qHTS for Inhibitors of ATXN expression; also: nearly all actives have a fitted effect of over 55% in size; also: potency is read from the fitted curve at half-maximal effect; tags tell the direction and shape of the fitted curve; as to activity change, negative = inhibition: % is scaled to controls: 0 for no effect and ±100 for the full control effect", "settings": "HEK-293 ATXN2-luciferase reporter, luminescence, 24 h; activity change, negative = inhibition: at 57 µM (top of the series)", "summary_of_the_method": "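ATXN2-luciferase reporter cells (luciferase flanked by upstream and downstream ATXN2 gene portions) were treated 24 h at 37 °C with compounds at up to 57 uM. SteadyGlo luminescence gave expression; GF-AFC fluorescence gave viability.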"}
{"molecule": "CC(C)(C)S(=O)N1Cc2cc(C(=O)NCC(F)(F)F)nc(-c3cccc(-c4cccc(F)c4)c3)c2[C@@H]1CCO", "note": "(stereo not given in full)", "Potency": "inconclusive: 11.2 µM [inhibitor, partial curve]"}
{"molecule": "COc1ccc(-c2nnc(SCC(=O)c3[nH]c(C)c(C(C)=O)c3C)o2)cc1", "Potency": "inconclusive: 10 µM [inhibitor, partial curve]"}
{"molecule": "C/C=C/C(=O)N1CC2(CC(c3cccc(NC(=O)COc4ccc(Cl)cc4)c3)=NO2)C[C@@H]1C(N)=O", "note": "(stereo not given in full)", "activity change, negative = inhibition": "inactive: -0.443%"}
{"molecule": "COc1cccc(-c2cn3nc4c(nc3n2)CCCC4)c1", "Potency": "inconclusive: 10 µM [inhibitor, partial curve, poor fit]"}
{"molecule": "CCOC(=O)[C@]12CCC=C1N(Cc1cccc3ccccc13)C(=O)[C@H](CC(=O)NCc1ccc(OC)c(OC)c1)C2", "Potency": "inconclusive: 39.8 µM [inhibitor, single point]"}
{"molecule": "COc1cccc(C(O)c2nc(-c3cccc4cccnc34)cs2)c1", "note": "(stereo not given)", "activity change, negative = inhibition": "inactive: 1.64%"}
{"molecule": "CCC1=Nc2cc(C(=O)NCCCOC)ccc2Sc2ccc(Br)cc21", "activity change, negative = inhibition": "inactive: -14.6%"}
{"molecule": "Cc1cc(NC(=O)CS(=O)c2cn(Cc3cccc(Cl)c3)c3ccccc23)no1", "note": "(stereo not given)", "Potency": "inconclusive: 20 µM [inhibitor, partial curve, poor fit]"}
{"molecule": "O=S(=O)(c1ccc(Cl)cc1)N1CCN(Cc2ccc(O)c3ncccc23)CC1", "Potency": "inconclusive: 3.36 µM [inhibitor, full curve, poor fit]"}
{"molecule": "O=C(O)Cn1cc(/C=N/Nc2ccc([N+](=O)[O-])cn2)c2ccccc21", "activity change, negative = inhibition": "inactive: 2.47%"}
{"molecule": "CC(C)c1ccc(/C=C/C(=O)Nc2ccc(CN3CCOCC3)cc2)cc1", "Potency": "inconclusive: 35.5 µM [inhibitor, partial curve, poor fit]"}
{"molecule": "Cc1nnnn1/C(=C\\c1ccccc1)C(=O)OCC(=O)Nc1ccc(Cl)cc1F", "Potency": "inconclusive: 22.4 µM [inhibitor, single point]"}
{"molecule": "O=C(N[C@@H](Cc1ccccc1)C(=O)CCl)OCc1ccccc1", "Potency": "active: 28.2 µM"}
{"molecule": "Cc1cc(Cl)nc(-n2nc(C)cc2C)n1", "activity change, negative = inhibition": "inactive: -9.62%"}
{"molecule": "CCOc1ccccc1C(=O)NCCNC(=O)c1ccccc1OCC", "activity change, negative = inhibition": "inactive: 11.6%"}
{"molecule": "CCCCc1c(Cc2cccc(F)c2)ncn1CCc1ccccc1OC", "Potency": "active: 14.1 µM"}
{"molecule": "CC(NC(=O)CCl)c1ccc(Cl)c(Cl)c1", "note": "(stereo not given)", "Potency": "inconclusive: 39.8 µM [inhibitor, single point]"}
{"molecule": "Cc1cc(Nc2ccccc2)nc(NCc2ccccc2)n1", "Potency": "inconclusive: 15.8 µM [inhibitor, partial curve]"}
{"molecule": "CCc1ccc(Sc2cc(C(=O)NCCN3CCOCC3)c3ccccc3n2)cc1", "activity change, negative = inhibition": "inactive: -1.48%"}
{"molecule": "O=C(Nc1cccc(Br)c1)c1cccc(OC(=S)N2CCOCC2)c1", "Potency": "inconclusive: 20 µM [inhibitor, single point]"}
{"molecule": "Cc1[nH]nc2c1C(c1ccc(N(C)C)cc1)C1=C(CC(C)(C)CC1=O)N2", "note": "(stereo not given)", "Potency": "inconclusive: 3.55 µM [inhibitor, partial curve]"}
{"molecule": "CCC/C=C/c1ccc(CN2C(CC(C)C)C(=O)N(Cc3cn(CC4CCCCC4)nn3)CCS2(=O)=O)cc1", "note": "(stereo not given)", "Potency": "inconclusive: 28.2 µM [inhibitor, partial curve, poor fit]"}
{"molecule": "Cc1ccc(-c2csc(N3CCN(c4cc5c(cc4Cl)nc(-c4ccncc4)n5CCOCCO)CC3)n2)cc1", "Potency": "inconclusive: 22.4 µM [inhibitor, partial curve]"}
{"molecule": "COc1ccc(C=C2C=C(C(C)(C)C)C(=O)C(C(C)(C)C)=C2)cc1OC", "Potency": "inconclusive: 39.8 µM [inhibitor, single point]"}
{"molecule": "CN(C)C(=O)N1CCN(S(=O)(=O)c2ccc3ccccc3c2)CC1", "activity change, negative = inhibition": "inactive: -19.8%"}
{"molecule": "CCc1ccc(N2CCN(C(=O)c3ccc(OC)c(OC)c3)CC2)cc1", "Potency": "inconclusive: 8.91 µM [inhibitor, partial curve, poor fit]"}
{"molecule": "Brc1cnc2nc(SCc3nc4ccccc4[nH]3)[nH]c2c1", "Potency": "active: 23.8 µM"}
{"molecule": "NC(c1csc(Nc2nccc(C(F)(F)F)n2)n1)C1CCCCC1", "note": "(stereo not given)", "Potency": "inconclusive: 39.8 µM [inhibitor, single point]"}
{"molecule": "Cc1cc2ncc(-c3ncc(C(F)(F)F)cc3Cl)cn2n1", "Potency": "inconclusive: 11.2 µM [inhibitor, partial curve, poor fit]"}
{"molecule": "CCOC(=O)c1ccc(N2C(=O)c3n[nH]c(-c4ccco4)c3C2c2cccc(F)c2)cc1", "note": "(stereo not given)", "Potency": "inconclusive: 39.8 µM [inhibitor, single point]"}
{"molecule": "COc1ccc(NC(=O)c2sc(=O)n(Cc3ccc4ccccc4c3)c2C)cc1OC", "Potency": "inconclusive: 7.08 µM [inhibitor, partial curve, poor fit]"}
{"molecule": "CC(C)NS(=O)(=O)c1ccc(OCC(=O)N2CCN(c3cccc(Cl)c3)CC2)cc1", "Potency": "inconclusive: 25.1 µM [inhibitor, partial curve, poor fit]"}
{"molecule": "S=C(Nc1ccccc1)N1CCn2c(nc3ccccc32)C1", "activity change, negative = inhibition": "inactive: -2.73%"}
{"molecule": "CCC(c1nnnn1Cc1ccc(F)cc1)N(CCCO)Cc1cc2cc3c(cc2[nH]c1=O)OCO3", "note": "(stereo not given)", "Potency": "inconclusive: 28.2 µM [inhibitor, partial curve, poor fit]"}
{"molecule": "COc1ccc(-c2nnc(SCC(=O)Nc3sc4c(c3C#N)CCCC4)n2-c2ccccc2)cc1", "Potency": "inconclusive: 39.8 µM [inhibitor, single point]"}
{"molecule": "Cc1ccc2sc(N(CCCN(C)C)C(=O)CCS(=O)(=O)c3ccccc3)nc2c1C", "Potency": "inconclusive: 39.8 µM [inhibitor, single point]"}
{"molecule": "C=C1C(C(=O)Nc2ccc(OC)cc2)C1C(=O)Nc1ccc(OC)cc1", "note": "(stereo not given)", "Potency": "inconclusive: 39.8 µM [inhibitor, single point]"}
{"molecule": "O=C(O)c1cccc(NC(=O)c2cccc(NC(=O)C3CCCO3)c2)c1", "note": "(stereo not given)", "Potency": "active: 8.91 µM"}
{"molecule": "Cc1ccc(Nc2cc(-c3ccccc3)nc3ncnn23)cc1", "activity change, negative = inhibition": "inactive: -26%"}
{"molecule": "Cn1c(NCc2cccnc2)nc2c1c(=O)n(Cc1ccccc1F)c(=O)n2C", "activity change, negative = inhibition": "inactive: -14.6%"}
{"molecule": "COC(=O)COc1ccc(/C=N/NC(=O)CN(c2ccccc2OC)S(=O)(=O)c2ccccc2)cc1", "Potency": "inconclusive: 39.8 µM [inhibitor, single point]"}
{"molecule": "COc1ccc(C(=O)NNC(=O)c2ccc3ccccc3n2)cc1", "Potency": "active: 20 µM"}
{"molecule": "C=CCC(=O)N(CC)CC1CCCN(CCc2cccc(F)c2)C1", "note": "(stereo not given)", "activity change, negative = inhibition": "inactive: 4.09%"}
{"molecule": "CN(C1CCCCC1)S(=O)(=O)c1ccc(NC(=S)NC(=O)c2cccs2)cc1", "activity change, negative = inhibition": "inactive: -33.3%"}
{"molecule": "O=C(NNC1=Nc2ccccc2SC1)c1ccc(Cl)cc1", "Potency": "active: 14.1 µM"}
{"molecule": "CCCCNc1c(-c2ccc(OC)c(SC3CCCCC3)c2)nc2cnccn12", "Potency": "inconclusive: 35.5 µM [inhibitor, single point]"}
{"molecule": "Cc1nc2ncnn2c(C)c1CCC(=O)NCc1ccc(Cl)cc1", "activity change, negative = inhibition": "inactive: 3.39%"}
{"molecule": "COc1cc(/C=N/Nc2cc(C)nc(NS(=O)(=O)c3ccc(C)cc3)n2)ccc1O", "activity change, negative = inhibition": "inactive: -5.63%"}
{"molecule": "CC(=O)N1CCN(c2ccc(N=Cc3c(O)n(Cc4ccccc4)c(=O)[nH]c3=O)cc2)CC1", "activity change, negative = inhibition": "inactive: -2.16%"}
{"molecule": "COc1ccc(CNC(=O)c2cnn(-c3ccc(C)cc3)c2C2CCN(C(=O)OC(C)(C)C)CC2)cc1", "Potency": "inconclusive: 39.8 µM [inhibitor, single point]"}
{"molecule": "COC(=O)c1ccc(C(=O)Nc2cc(Cl)ccc2Cl)cc1NC(=O)c1ccc(N(C)C)cc1", "Potency": "inconclusive: 12.6 µM [inhibitor, partial curve, poor fit]"}
{"molecule": "O=C(Nc1cccc(-c2csc(Nc3cccc(C(F)(F)F)c3)n2)c1)c1ccccc1", "Potency": "inconclusive: 25.1 µM [inhibitor, single point]"}
{"molecule": "N#Cc1ccc(C(=O)Nc2nc(-c3cccs3)c(C(=O)C(F)(F)F)s2)cc1", "Potency": "inconclusive: 8.91 µM [inhibitor, partial curve]"}
{"molecule": "Cc1ncc(CO)c(/C=N/NC(=S)Nc2ccc(F)cc2)c1O", "Potency": "inconclusive: 14.1 µM [inhibitor, partial curve, poor fit]"}
{"molecule": "Cc1ccccc1NS(=O)(=O)c1cc(C(=O)Nc2cccc([N+](=O)[O-])c2)ccc1C", "Potency": "inconclusive: 25.1 µM [inhibitor, single point]"}
{"molecule": "CN(C)c1nc(N/N=C/c2ccccc2O)nc(Nc2ccc(F)cc2)n1", "Potency": "inconclusive: 35.5 µM [inhibitor, single point]"}
{"molecule": "O=C(Nc1ncccc1O)c1ccc(OCC2CCCO2)cc1", "note": "(stereo not given)", "Potency": "inconclusive: 11.2 µM [inhibitor, partial curve, poor fit]"}
{"molecule": "Cc1csc(NC(=O)/C=C/c2ccco2)n1", "activity change, negative = inhibition": "inactive: 22.6%"}
{"molecule": "Cc1nc(-c2ccc(C(=O)Nc3cccc(F)c3)cc2)cs1", "Potency": "inconclusive: 11.2 µM [inhibitor, single point]"}
{"molecule": "O=C(Nc1ccc2c(c1)OCCO2)C(CCc1ccccc1)N(Cc1ccccc1)Cc1ccccc1", "note": "(stereo not given)", "activity change, negative = inhibition": "inactive: 2%"}
{"molecule": "CCOC(=O)c1ccc(-c2ccc(/C=C(\\C#N)C(=O)Nc3cccc(C)c3)o2)cc1", "activity change, negative = inhibition": "inactive: 9.12%"}
{"molecule": "S=C(Nc1cccc(Cl)c1)Nc1ccccc1Oc1ccccc1", "activity change, negative = inhibition": "inactive: -11.3%"}
{"molecule": "COc1ccc(C(=O)Cn2cnc3ccccc3c2=O)c(OC)c1", "activity change, negative = inhibition": "inactive: 55.4%"}
{"molecule": "CCOc1ccccc1NC(=O)C(OC(=O)c1ccc(CC)cc1)c1ccccc1", "note": "(stereo not given)", "activity change, negative = inhibition": "inactive: -4.5%"}
{"molecule": "Cn1c(-c2ccc(Br)o2)nc2ccccc21", "activity change, negative = inhibition": "inactive: 19.5%"}
{"molecule": "COc1ccc(CCNC(=O)CSCc2ccc([N+](=O)[O-])cc2)cc1OC", "activity change, negative = inhibition": "inactive: -16.2%"}
{"molecule": "COC(=O)c1ccc(NC(=O)c2cccc(N3C(=O)C4C5C=CC(C6CC56)C4C3=O)c2)cc1", "note": "(stereo not given)", "Potency": "inconclusive: 31.6 µM [inhibitor, single point]"}
{"molecule": "CCc1nnc2c3ccccc3nc(Nc3ccc(F)cc3C)n12", "activity change, negative = inhibition": "inactive: -10.8%"}
{"molecule": "N#C/C(=C\\c1ccc(OCCN2CCOCC2)cc1)C(=O)Nc1ccc(S(N)(=O)=O)cc1", "activity change, negative = inhibition": "inactive: -14.6%"}
{"molecule": "Cc1cc(Nc2cccc(F)c2)nc(NCc2ccccc2)n1", "Potency": "inconclusive: 31.6 µM [inhibitor, partial curve, poor fit]"}
